# Measurements from PMC5066494, “Interaction between RNA helicase ROOT INITIATION DEFECTIVE 1 and GAMETOPHYTIC FACTOR 1 is involved in female gametophyte development in Arabidopsis” (Journal of Experimental Botany, 2016).
# These are yes or no findings as the source states them, for the method shown. For some of these results: In cells and extracts the contact can be indirect. Some entries that bind do so weakly or less than the wild type. Tags and fused reporters may be left off the sequences shown.
# T1: GFA1 fused to the C-terminal part of yellow fluorescent protein (GFA1-YFP C) (Arabidopsis) (UniProt Q9LNC5)
# T1 sequence: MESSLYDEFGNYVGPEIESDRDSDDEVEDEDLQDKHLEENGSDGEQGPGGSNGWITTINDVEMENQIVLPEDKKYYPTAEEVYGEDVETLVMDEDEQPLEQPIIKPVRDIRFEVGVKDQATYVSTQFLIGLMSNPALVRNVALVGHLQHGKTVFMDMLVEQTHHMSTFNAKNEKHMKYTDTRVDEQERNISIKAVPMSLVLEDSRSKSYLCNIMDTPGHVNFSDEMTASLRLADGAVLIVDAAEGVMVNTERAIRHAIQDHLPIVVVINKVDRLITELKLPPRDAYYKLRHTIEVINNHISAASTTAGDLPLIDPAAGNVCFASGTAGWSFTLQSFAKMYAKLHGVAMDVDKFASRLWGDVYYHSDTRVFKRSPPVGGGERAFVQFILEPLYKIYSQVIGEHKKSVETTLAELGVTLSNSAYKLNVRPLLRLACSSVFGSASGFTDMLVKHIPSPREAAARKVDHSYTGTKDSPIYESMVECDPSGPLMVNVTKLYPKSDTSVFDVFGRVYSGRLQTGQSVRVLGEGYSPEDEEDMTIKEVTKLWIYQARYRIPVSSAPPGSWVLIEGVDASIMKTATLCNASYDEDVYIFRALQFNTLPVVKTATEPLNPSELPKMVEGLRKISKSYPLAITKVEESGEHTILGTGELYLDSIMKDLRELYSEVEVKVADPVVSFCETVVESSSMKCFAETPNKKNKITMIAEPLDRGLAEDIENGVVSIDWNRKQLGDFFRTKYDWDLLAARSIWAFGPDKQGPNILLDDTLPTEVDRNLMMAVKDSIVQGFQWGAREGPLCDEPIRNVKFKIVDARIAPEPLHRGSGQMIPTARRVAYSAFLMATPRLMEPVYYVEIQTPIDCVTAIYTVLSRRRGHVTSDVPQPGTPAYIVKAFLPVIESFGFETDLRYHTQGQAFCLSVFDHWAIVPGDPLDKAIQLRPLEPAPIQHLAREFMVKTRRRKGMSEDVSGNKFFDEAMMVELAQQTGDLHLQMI
# T2: GAMETOPHYTIC FACTOR 1 (GFA1), full length, fused to the Gal4 DNA-binding domain (Arabidopsis) (UniProt Q9LNC5)
# T2 sequence: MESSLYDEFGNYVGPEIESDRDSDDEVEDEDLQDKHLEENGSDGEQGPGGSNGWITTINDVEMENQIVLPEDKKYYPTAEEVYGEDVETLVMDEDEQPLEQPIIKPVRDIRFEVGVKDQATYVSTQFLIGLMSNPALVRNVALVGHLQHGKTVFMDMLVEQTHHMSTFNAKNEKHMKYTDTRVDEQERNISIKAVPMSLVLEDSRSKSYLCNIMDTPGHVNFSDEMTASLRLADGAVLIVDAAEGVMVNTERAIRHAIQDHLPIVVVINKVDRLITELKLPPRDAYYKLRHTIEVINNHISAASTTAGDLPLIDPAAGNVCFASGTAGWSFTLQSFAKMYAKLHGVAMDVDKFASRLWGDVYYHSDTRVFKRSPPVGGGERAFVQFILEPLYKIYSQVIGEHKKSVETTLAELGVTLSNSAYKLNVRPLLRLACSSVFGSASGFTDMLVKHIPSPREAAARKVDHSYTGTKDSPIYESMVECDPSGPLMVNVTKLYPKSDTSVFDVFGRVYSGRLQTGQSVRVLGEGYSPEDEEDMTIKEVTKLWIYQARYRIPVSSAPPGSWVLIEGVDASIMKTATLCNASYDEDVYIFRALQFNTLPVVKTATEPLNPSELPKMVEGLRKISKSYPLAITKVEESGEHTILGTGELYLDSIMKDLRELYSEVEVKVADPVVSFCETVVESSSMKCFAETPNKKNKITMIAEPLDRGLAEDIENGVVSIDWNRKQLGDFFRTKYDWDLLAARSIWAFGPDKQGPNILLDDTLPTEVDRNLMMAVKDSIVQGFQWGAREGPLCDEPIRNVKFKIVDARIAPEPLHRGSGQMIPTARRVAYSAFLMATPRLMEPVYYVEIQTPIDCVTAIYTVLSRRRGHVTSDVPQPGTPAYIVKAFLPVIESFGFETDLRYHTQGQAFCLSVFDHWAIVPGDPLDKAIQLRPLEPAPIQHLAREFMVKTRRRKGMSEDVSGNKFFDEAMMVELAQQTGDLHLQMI
# Target: T1, GFA1 fused to the C-terminal part of yellow fluorescent protein (GFA1-YFP C) (Arabidopsis)
# Experiment: split reporter; BiFC: 35S::RID1-YFPN and 35S::GFA1-YFPC in N. benthamiana leaf epidermal cells by Agrobacterium infiltration; confocal microscopy after 3 d
row,Binder,binding
1,"RID1 fused to the N-terminal part of yellow fluorescent protein (RID1-YFP N) (protein, UniProt F4IE66 1-717) MPSMAQGELKSFVQNSRPNPKSPTVSPFSMRQKIAEHRRSLPIASVEKRLVEEVQKNDILIIVGETGSGKTTQLPQFLYNAGFCREGKMIGITQPRRIAAVTVAKRVAEECEVQLGQKVGYSIRFDDTTSGSTRLKYMTDGLLLREALLDPHLSRYSVIIVDEAHDRSVHTDVLLALLKKIQRTRSQPVSEKTEFGNVASQVQTTTRDANGPQQNGVLKGYQGRKLSPLKLIIMSASLDARVFSEYFGGAKAVHVQGRQFPVDILYTVHPESDYVDATLVTIFQIHFEEKPGDILVFLTGQDEIESVERLVQERLQNIPEDKRKLLPLAIFSALPSEQQMKVFAPAPTGFRKVILATNIAETSITIPGIRYVIDPGFVKARSYDPSKGMESLDVVPASKAQTLQRSGRAGREGPGKSFRLYPEREFEKLEDSTKPEIKRCNLSNIILQLKALGIDDIVGFDFIDKPSRGAIIKALAELHSLGALADDGKLENPVGYQMSRLPLEPVYSKALILANQFNCLEEMLITVAVLSVESIFYDPREKREEARTSKNHFASVEGDHLTYLSVYRESDEFLEKRKAAGSGNNIDKIMKKWCKENYVNSRSLKHARDIYRQIREHVEQIGFNVSSCGNDMLAFRRCLAASFFLKAAQRQLDGTYRALESGEVVHIHPTSVLFRAKPECVIFNELMQTSKKYIKNLTIIDSLWLSELAPHHFQTAE",binds

# Target: T2, GAMETOPHYTIC FACTOR 1 (GFA1), full length, fused to the Gal4 DNA-binding domain (Arabidopsis)
# Experiment: two-hybrid; S. cerevisiae Y2H gold; RID1 or its fragments in pGADT7 (AD), GFA1 in pGBKT7 (BD); growth on SD/−Trp/−Leu/−His/−Ade and blue colour with X-α-gal; 30 °C, 3–5 d
row,Binder,binding
1,"ROOT INITIATION … 1 (RID1), full length, fused to the Gal4 activation domain (protein, UniProt F4IE66 1-717) MPSMAQGELKSFVQNSRPNPKSPTVSPFSMRQKIAEHRRSLPIASVEKRLVEEVQKNDILIIVGETGSGKTTQLPQFLYNAGFCREGKMIGITQPRRIAAVTVAKRVAEECEVQLGQKVGYSIRFDDTTSGSTRLKYMTDGLLLREALLDPHLSRYSVIIVDEAHDRSVHTDVLLALLKKIQRTRSQPVSEKTEFGNVASQVQTTTRDANGPQQNGVLKGYQGRKLSPLKLIIMSASLDARVFSEYFGGAKAVHVQGRQFPVDILYTVHPESDYVDATLVTIFQIHFEEKPGDILVFLTGQDEIESVERLVQERLQNIPEDKRKLLPLAIFSALPSEQQMKVFAPAPTGFRKVILATNIAETSITIPGIRYVIDPGFVKARSYDPSKGMESLDVVPASKAQTLQRSGRAGREGPGKSFRLYPEREFEKLEDSTKPEIKRCNLSNIILQLKALGIDDIVGFDFIDKPSRGAIIKALAELHSLGALADDGKLENPVGYQMSRLPLEPVYSKALILANQFNCLEEMLITVAVLSVESIFYDPREKREEARTSKNHFASVEGDHLTYLSVYRESDEFLEKRKAAGSGNNIDKIMKKWCKENYVNSRSLKHARDIYRQIREHVEQIGFNVSSCGNDMLAFRRCLAASFFLKAAQRQLDGTYRALESGEVVHIHPTSVLFRAKPECVIFNELMQTSKKYIKNLTIIDSLWLSELAPHHFQTAE",binds
2,"RID1_(1-271) (G257A, V262K, and Y266A), fused to the Gal4 activation domain (domain or fragment, UniProt F4IE66 1-271) MPSMAQGELKSFVQNSRPNPKSPTVSPFSMRQKIAEHRRSLPIASVEKRLVEEVQKNDILIIVGETGSGKTTQLPQFLYNAGFCREGKMIGITQPRRIAAVTVAKRVAEECEVQLGQKVGYSIRFDDTTSGSTRLKYMTDGLLLREALLDPHLSRYSVIIVDEAHDRSVHTDVLLALLKKIQRTRSQPVSEKTEFGNVASQVQTTTRDANGPQQNGVLKGYQGRKLSPLKLIIMSASLDARVFSEYFGGAKAVHVQARQFPKDILATVHPE",binds
3,"RID1_(1-271) (P270S and E271K), fused to the Gal4 activation domain (domain or fragment, UniProt F4IE66 1-271) MPSMAQGELKSFVQNSRPNPKSPTVSPFSMRQKIAEHRRSLPIASVEKRLVEEVQKNDILIIVGETGSGKTTQLPQFLYNAGFCREGKMIGITQPRRIAAVTVAKRVAEECEVQLGQKVGYSIRFDDTTSGSTRLKYMTDGLLLREALLDPHLSRYSVIIVDEAHDRSVHTDVLLALLKKIQRTRSQPVSEKTEFGNVASQVQTTTRDANGPQQNGVLKGYQGRKLSPLKLIIMSASLDARVFSEYFGGAKAVHVQGRQFPVDILYTVHSK",binds
4,"RID1_(1-271)-AD with the T267I mutation (domain or fragment, UniProt F4IE66 1-271) MPSMAQGELKSFVQNSRPNPKSPTVSPFSMRQKIAEHRRSLPIASVEKRLVEEVQKNDILIIVGETGSGKTTQLPQFLYNAGFCREGKMIGITQPRRIAAVTVAKRVAEECEVQLGQKVGYSIRFDDTTSGSTRLKYMTDGLLLREALLDPHLSRYSVIIVDEAHDRSVHTDVLLALLKKIQRTRSQPVSEKTEFGNVASQVQTTTRDANGPQQNGVLKGYQGRKLSPLKLIIMSASLDARVFSEYFGGAKAVHVQGRQFPVDILYIVHPE",binds
5,"RID1 amino acids 1–309, fused to the Gal4 activation domain (domain or fragment, UniProt F4IE66 1-309) MPSMAQGELKSFVQNSRPNPKSPTVSPFSMRQKIAEHRRSLPIASVEKRLVEEVQKNDILIIVGETGSGKTTQLPQFLYNAGFCREGKMIGITQPRRIAAVTVAKRVAEECEVQLGQKVGYSIRFDDTTSGSTRLKYMTDGLLLREALLDPHLSRYSVIIVDEAHDRSVHTDVLLALLKKIQRTRSQPVSEKTEFGNVASQVQTTTRDANGPQQNGVLKGYQGRKLSPLKLIIMSASLDARVFSEYFGGAKAVHVQGRQFPVDILYTVHPESDYVDATLVTIFQIHFEEKPGDILVFLTGQDEIESVER",binds
6,"RID1 amino acids 265–472, fused to the Gal4 activation domain (domain or fragment, UniProt F4IE66 265-472) LYTVHPESDYVDATLVTIFQIHFEEKPGDILVFLTGQDEIESVERLVQERLQNIPEDKRKLLPLAIFSALPSEQQMKVFAPAPTGFRKVILATNIAETSITIPGIRYVIDPGFVKARSYDPSKGMESLDVVPASKAQTLQRSGRAGREGPGKSFRLYPEREFEKLEDSTKPEIKRCNLSNIILQLKALGIDDIVGFDFIDKPSRGAII",binds
7,"RID1 amino acids 1–271 (RID1_(1–271)), fused to the Gal4 activation domain (domain or fragment, UniProt F4IE66 1-271) MPSMAQGELKSFVQNSRPNPKSPTVSPFSMRQKIAEHRRSLPIASVEKRLVEEVQKNDILIIVGETGSGKTTQLPQFLYNAGFCREGKMIGITQPRRIAAVTVAKRVAEECEVQLGQKVGYSIRFDDTTSGSTRLKYMTDGLLLREALLDPHLSRYSVIIVDEAHDRSVHTDVLLALLKKIQRTRSQPVSEKTEFGNVASQVQTTTRDANGPQQNGVLKGYQGRKLSPLKLIIMSASLDARVFSEYFGGAKAVHVQGRQFPVDILYTVHPE",binds
8,"RID1_(1-271)-AD with all conserved residues substituted (G257A, R258A, P261K, V262K, I264K, Y266A, P270K, and E271A) (domain or fragment, UniProt F4IE66 1-271) MPSMAQGELKSFVQNSRPNPKSPTVSPFSMRQKIAEHRRSLPIASVEKRLVEEVQKNDILIIVGETGSGKTTQLPQFLYNAGFCREGKMIGITQPRRIAAVTVAKRVAEECEVQLGQKVGYSIRFDDTTSGSTRLKYMTDGLLLREALLDPHLSRYSVIIVDEAHDRSVHTDVLLALLKKIQRTRSQPVSEKTEFGNVASQVQTTTRDANGPQQNGVLKGYQGRKLSPLKLIIMSASLDARVFSEYFGGAKAVHVQAAQFKKDKLATVHKA",binds
9,"RID1_(272–460), fused to the Gal4 activation domain (domain or fragment, UniProt F4IE66 272-460) SDYVDATLVTIFQIHFEEKPGDILVFLTGQDEIESVERLVQERLQNIPEDKRKLLPLAIFSALPSEQQMKVFAPAPTGFRKVILATNIAETSITIPGIRYVIDPGFVKARSYDPSKGMESLDVVPASKAQTLQRSGRAGREGPGKSFRLYPEREFEKLEDSTKPEIKRCNLSNIILQLKALGIDDIVGF",no binding
